Assay results taken from the supplement of paper PMC4967469.
pIC50: −log10 of the molar value. A lower IC50 marks a more sensitive line; a fit beyond the top or the lowest dose is shown as a bound at that dose. AUC sums up the same curve from the lowest dose to the 256-fold higher top dose; values near 1 show little effect. For some assays here: An inferred top dose is not printed in the source and was worked back from the curve model.

What was measured:
Test in all cases: Viability of human cancer cell lines after 72 h of drug (GDSC screen)
BMX-IN-1 (QL-XII-61) = compound: C=CC(=O)Nc1cc(-n2c(=O)ccc3cnc4ccc(-c5ccc(NS(C)(=O)=O)cc5)cc4c32)ccc1C [BMX-IN-1 (QL-XII-61)]; settings: top dose 10 µM; top dose inferred
Procedure: (§1)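 Human cancer cell lines in 384-well plates, medium with 10% serum, drug for 72 h over a 256-fold dose range (nine 2-fold or five 4-fold steps up to the top dose). Adherent lines were fixed and stained with the nucleic acid dye Syto60, suspension lines read with resazurin; signal relative to control wells, capped at 0 and 100%. One two-parameter sigmoid per drug and line, fitted in a mixed model over all curves with the slope shared within a line.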

Vismodegib = compound: CS(=O)(=O)c1ccc(C(=O)Nc2ccc(Cl)c(-c3ccccn3)c2)c(Cl)c1 [Vismodegib]; settings: top dose 10 µM; top dose inferred
Procedure: as §1

OSI-027 = compound: COc1cccc2cc(-c3nc([C@H]4CC[C@H](C(=O)O)CC4)n4ncnc(N)c34)[nH]c12 [OSI-027]; settings: top dose 20 µM
Procedure: as §1

VX-11e = compound: Cc1cnc(Nc2ccc(F)cc2Cl)nc1-c1c[nH]c(C(=O)N[C@H](CO)c2cccc(Cl)c2)c1 [VX-11e]; settings: top dose 5.12 µM; top dose inferred
Procedure: as §1

Doxorubicin = compound: COc1cccc2c1C(=O)c1c(O)c3c(c(O)c1C2=O)C[C@@](O)(C(=O)CO)C[C@@H]3O[C@H]1C[C@H](N)[C@H](O)[C@H](C)O1 [Doxorubicin]; settings: top dose 1.024 µM
Procedure: as §1

TG101348 = compound: Cc1cnc(Nc2ccc(OCCN3CCCC3)cc2)nc1Nc1cccc(S(=O)(=O)NC(C)(C)C)c1 [TG101348]; settings: top dose 10.24 µM
Procedure: as §1

BIX02189 = compound: CN(C)Cc1cccc(N=C(c2ccccc2)c2c(O)[nH]c3cc(C(=O)N(C)C)ccc23)c1 [BIX02189]; settings: top dose 20 µM; top dose inferred
Procedure: as §1

17-AAG = compound: C=CCNC1=C2C[C@@H](C)C[C@H](OC)[C@H](O)[C@@H](C)/C=C(\C)[C@H](OC(N)=O)[C@@H](OC)/C=C\C=C(/C)C(=O)NC(=CC1=O)C2=O [17-AAG]; settings: top dose 1 µM
Procedure: as §1

Dimethyloxalylglycine = compound: COC(=O)CNC(=O)C(=O)OC [Dimethyloxalylglycine]; settings: top dose 4000 µM; top dose inferred
Procedure: as §1

CCT018159 = compound: CCc1cc(-c2n[nH]c(C)c2-c2ccc3c(c2)OCCO3)c(O)cc1O [CCT018159]; settings: top dose 10 µM; top dose inferred
Procedure: as §1

UNC1215 = compound: O=C(c1ccc(C(=O)N2CCC(N3CCCC3)CC2)c(Nc2ccccc2)c1)N1CCC(N2CCCC2)CC1 [UNC1215]; settings: top dose 1 µM; top dose inferred
Procedure: as §1

## H2869 (mesothelioma, adherent)
BMX-IN-1 (QL-XII-61)
  AUC: 0.974
  pIC50: < 5.00
Vismodegib
  AUC: 0.984
  pIC50: < 5.00
OSI-027
  AUC: 0.292
  pIC50: 6.56
VX-11e
  AUC: 0.982
  pIC50: < 5.29
Doxorubicin
  AUC: 0.711
  pIC50: 6.53
TG101348
  AUC: 0.584
  pIC50: 5.94
BIX02189
  AUC: 0.902
  pIC50: < 4.70
17-AAG
  AUC: 0.984
  pIC50: < 6.00
Dimethyloxalylglycine
  AUC: 0.479
  pIC50: 3.67
CCT018159
  AUC: 0.984
  pIC50: < 5.00
UNC1215
  AUC: 0.981
  pIC50: < 6.00

## RERF-LC-KJ (lung adenocarcinoma, adherent)
BMX-IN-1 (QL-XII-61)
  AUC: 0.933
  pIC50: < 5.00
Vismodegib
  AUC: 0.981
  pIC50: < 5.00
OSI-027
  AUC: 0.77
  pIC50: 5.10
VX-11e
  AUC: 0.974
  pIC50: < 5.29
Doxorubicin
  AUC: 0.563
  pIC50: 7.02
TG101348
  AUC: 0.934
  pIC50: < 4.99
BIX02189
  AUC: 0.986
  pIC50: < 4.70
17-AAG
  AUC: 0.734
  pIC50: 6.53
Dimethyloxalylglycine
  AUC: 0.784
  pIC50: 2.76
CCT018159
  AUC: 0.912
  pIC50: < 5.00
UNC1215
  AUC: 0.986
  pIC50: < 6.00

## SF126 (glioma, adherent)
BMX-IN-1 (QL-XII-61)
  AUC: 0.955
  pIC50: < 5.00
Vismodegib
  AUC: 0.986
  pIC50: < 5.00
OSI-027
  AUC: 0.702
  pIC50: 5.32
VX-11e
  AUC: 0.984
  pIC50: < 5.29
Doxorubicin
  AUC: 0.584
  pIC50: 6.96
TG101348
  AUC: 0.868
  pIC50: < 4.99
BIX02189
  AUC: 0.926
  pIC50: < 4.70
17-AAG
  AUC: 0.929
  pIC50: < 6.00
Dimethyloxalylglycine
  AUC: 0.446
  pIC50: 3.75
CCT018159
  AUC: 0.848
  pIC50: 5.09
UNC1215
  AUC: 0.976
  pIC50: < 6.00

## DoTc2-4510 (cervix, adherent)
BMX-IN-1 (QL-XII-61)
  AUC: 0.87
  pIC50: 5.07
Vismodegib
  AUC: 0.975
  pIC50: < 5.00
OSI-027
  AUC: 0.922
  pIC50: < 4.70
VX-11e
  AUC: 0.968
  pIC50: < 5.29
Doxorubicin
  AUC: 0.415
  pIC50: 7.42
TG101348
  AUC: 0.936
  pIC50: < 4.99
BIX02189
  AUC: 0.982
  pIC50: < 4.70
17-AAG
  AUC: 0.723
  pIC50: 6.59
Dimethyloxalylglycine
  AUC: 0.427
  pIC50: 3.80
CCT018159
  AUC: 0.881
  pIC50: 5.02
UNC1215
  AUC: 0.986
  pIC50: < 6.00

## VAL (B-cell lymphoma, suspension)
BMX-IN-1 (QL-XII-61)
  AUC: 0.976
  pIC50: < 5.00
Vismodegib
  AUC: 0.981
  pIC50: < 5.00
OSI-027
  AUC: 0.189
  pIC50: 6.83
VX-11e
  AUC: 0.948
  pIC50: < 5.29
Doxorubicin
  AUC: 0.597
  pIC50: 6.93
TG101348
  AUC: 0.755
  pIC50: 5.46
BIX02189
  AUC: 0.807
  pIC50: 4.99
17-AAG
  AUC: 0.986
  pIC50: < 6.00
Dimethyloxalylglycine
  AUC: 0.495
  pIC50: 3.61
CCT018159
  AUC: 0.947
  pIC50: < 5.00
UNC1215
  AUC: 0.984
  pIC50: < 6.00

## MZ1-PC (pancreas, adherent)
BMX-IN-1 (QL-XII-61)
  AUC: 0.978
  pIC50: < 5.00
Vismodegib
  AUC: 0.976
  pIC50: < 5.00
OSI-027
  AUC: 0.344
  pIC50: 6.38
VX-11e
  AUC: 0.403
  pIC50: 6.79
Doxorubicin
  AUC: 0.392
  pIC50: 7.52
TG101348
  AUC: 0.72
  pIC50: 5.50
BIX02189
  AUC: 0.88
  pIC50: < 4.70
17-AAG
  AUC: 0.933
  pIC50: < 6.00
Dimethyloxalylglycine
  AUC: 0.307
  pIC50: 4.20
CCT018159
  AUC: 0.934
  pIC50: < 5.00
UNC1215
  AUC: 0.951
  pIC50: < 6.00

## A388 (skin, adherent)
BMX-IN-1 (QL-XII-61)
  AUC: 0.895
  pIC50: < 5.00
Vismodegib
  AUC: 0.975
  pIC50: < 5.00
OSI-027
  AUC: 0.642
  pIC50: 5.48
VX-11e
  AUC: 0.981
  pIC50: < 5.29
Doxorubicin
  AUC: 0.395
  pIC50: 7.50
TG101348
  AUC: 0.961
  pIC50: < 4.99
BIX02189
  AUC: 0.977
  pIC50: < 4.70
17-AAG
  AUC: 0.696
  pIC50: 6.62
Dimethyloxalylglycine
  AUC: 0.777
  pIC50: 2.73
CCT018159
  AUC: 0.943
  pIC50: < 5.00
UNC1215
  AUC: 0.981
  pIC50: < 6.00

## MZ2-MEL (melanoma, adherent)
BMX-IN-1 (QL-XII-61)
  AUC: 0.96
  pIC50: < 5.00
Vismodegib
  AUC: 0.964
  pIC50: < 5.00
OSI-027
  AUC: 0.192
  pIC50: 6.91
VX-11e
  AUC: 0.744
  pIC50: 5.74
Doxorubicin
  AUC: 0.388
  pIC50: 7.53
TG101348
  AUC: 0.728
  pIC50: 5.49
BIX02189
  AUC: 0.95
  pIC50: < 4.70
17-AAG
  AUC: 0.553
  pIC50: 7.05
Dimethyloxalylglycine
  AUC: 0.594
  pIC50: 3.32
CCT018159
  AUC: 0.922
  pIC50: < 5.00
UNC1215
  AUC: 0.97
  pIC50: < 6.00

## CaR-1 (large intestine, adherent)
BMX-IN-1 (QL-XII-61)
  AUC: 0.974
  pIC50: < 5.00
Vismodegib
  AUC: 0.916
  pIC50: < 5.00
OSI-027
  AUC: 0.731
  pIC50: 5.09
VX-11e
  AUC: 0.978
  pIC50: < 5.29
Doxorubicin
  AUC: 0.904
  pIC50: < 5.99
TG101348
  AUC: 0.955
  pIC50: < 4.99
BIX02189
  AUC: 0.964
  pIC50: < 4.70
17-AAG
  AUC: 0.497
  pIC50: 7.21
Dimethyloxalylglycine
  AUC: 0.481
  pIC50: 3.67
CCT018159
  AUC: 0.952
  pIC50: < 5.00
UNC1215
  AUC: 0.975
  pIC50: < 6.00

## SNU-C2B (large intestine, adherent)
BMX-IN-1 (QL-XII-61)
  AUC: 0.978
  pIC50: < 5.00
Vismodegib
  AUC: 0.969
  pIC50: < 5.00
OSI-027
  AUC: 0.849
  pIC50: < 4.70
VX-11e
  AUC: 0.816
  pIC50: 5.39
Doxorubicin
  AUC: 0.765
  pIC50: 6.31
TG101348
  AUC: 0.864
  pIC50: < 4.99
BIX02189
  AUC: 0.952
  pIC50: < 4.70
17-AAG
  AUC: 0.853
  pIC50: < 6.00
Dimethyloxalylglycine
  AUC: 0.872
  pIC50: < 2.40
CCT018159
  AUC: 0.926
  pIC50: < 5.00
UNC1215
  AUC: 0.978
  pIC50: < 6.00

## NCI-H1155 (large cell lung carcinoma, suspension)
BMX-IN-1 (QL-XII-61)
  AUC: 0.993
  pIC50: < 5.00
Vismodegib
  AUC: 0.971
  pIC50: < 5.00
OSI-027
  AUC: 0.869
  pIC50: 4.88
VX-11e
  AUC: 0.983
  pIC50: < 5.29
Doxorubicin
  AUC: 0.854
  pIC50: 6.23
TG101348
  AUC: 0.952
  pIC50: < 4.99
BIX02189
  AUC: 0.976
  pIC50: < 4.70
17-AAG
  AUC: 0.725
  pIC50: 6.63
Dimethyloxalylglycine
  AUC: 0.8
CCT018159
  AUC: 0.878
  pIC50: 5.15
UNC1215
  AUC: 0.993
  pIC50: < 6.00

## CHSA0108 (chondrosarcoma, adherent)
BMX-IN-1 (QL-XII-61)
  AUC: 0.903
  pIC50: < 5.00
Vismodegib
  AUC: 0.983
  pIC50: < 5.00
OSI-027
  AUC: 0.899
  pIC50: < 4.70
VX-11e
  AUC: 0.874
  pIC50: < 5.29
Doxorubicin
  AUC: 0.81
  pIC50: 6.19
TG101348
  AUC: 0.844
  pIC50: 5.04
BIX02189
  AUC: 0.86
  pIC50: < 4.70
17-AAG
  AUC: 0.851
  pIC50: 6.02
Dimethyloxalylglycine
  AUC: 0.665
  pIC50: 3.11
CCT018159
  AUC: 0.834
  pIC50: 5.10
UNC1215
  AUC: 0.98
  pIC50: < 6.00
